In patent publication US9873709B2 (priority 2013, dated 2018) one finds Ki data, which are given here for 26 compounds.

The target of this test is isolated recombinant JAK1 kinase domain (Homo sapiens (Human), UniProt P23458). The settings on record: read-out: JAK1 Ki; isolated recombinant JAK1 kinase domain, 25 μM ATP.
A word on the Ki: it is a measure of affinity in units of concentration, obtained from inhibition or displacement. As for `CCOC(=O)N1CC=C(c2cccn3nc(Nc4ccc(C(=O)N5CCN(C)CC(CO)C5)cc4)nc23)CC1` (centres unmarked) [Example 2-20, ethyl 4-[2-[4-[6-(hydroxymethyl)-4-methyl-1,4-diazepane-1-carbonyl]anilino]-[1,2,4]triazolo[1,5-a]pyridin-8-yl]-3,6-dihydro-2H-pyridine-1-carboxylate], the Ki turned out to be 1.62 nM.

As for `CCOC(=O)N1CC=C(c2cccn3nc(Nc4ccc(C(=O)N5CCCC5C5CCCCN5C)cc4)nc23)CC1` (centres unmarked) [Example 2-21, ethyl 4-[2-[4-[2-(1-methyl-2-piperidyl)pyrrolidine-1-carbonyl]anilino]-[1,2,4]triazolo[1,5-a]pyridin-8-yl]-3,6-dihydro-2H-pyridine-1-carboxylate], the Ki is 2.85 nM.

For the compound `CCOC(=O)N1CC=C(c2cccn3nc(Nc4ccc(C(=O)N5CCCC5c5cc(N(C)C)cc(C)n5)cc4)nc23)CC1` (centres unmarked) [Example 2-22, ethyl 4-[2-[4-[2-[4-(dimethylamino)-6-methyl-2-pyridyl]pyrrolidine-1-carbonyl]anilino]-[1,2,4]triazolo[1,5-a]pyridin-8-yl]-3,6-dihydro-2H-pyridine-1-carboxylate], the inhibitory constant (Ki) was determined as 7.6 nM.

Consider `CCOC(=O)N1CC=C(c2cccn3nc(Nc4ccc(C(=O)N5CCNCC5C)cc4)nc23)CC1` (centres unmarked) [Example 2-24, ethyl 4-[2-[4-(2-methylpiperazine-1-carbonyl)anilino]-[1,2,4]triazolo[1,5-a]pyridin-8-yl]-3,6-dihydro-2H-pyridine-1-carboxylate], for which the Ki is 1.56 nM. Consider `CCOC(=O)N1CC=C(c2cccn3nc(Nc4ccc(C(=O)N5CCOC6(CCNCC6)C5)cc4)nc23)CC1` [Example 2-25, ethyl 4-[2-[4-(1-oxa-4,9-diazaspiro[5.5]undecane-4-carbonyl)anilino]-[1,2,4]triazolo[1,5-a]pyridin-8-yl]-3,6-dihydro-2H-pyridine-1-carboxylate], for which the inhibitory constant (Ki) amounted to 2.85 nM. On to `CCOC(=O)N1CC=C(c2cccn3nc(Nc4ccc(C(=O)NC5CC6(CCNCC6)C5)cc4)nc23)CC1` [Example 2-27, ethyl 4-[2-[4-(7-azaspiro[3.5]nonan-2-ylcarbamoyl)anilino]-[1,2,4]triazolo[1,5-a]pyridin-8-yl]-3,6-dihydro-2H-pyridine-1-carboxylate], for which the Ki came out at 1.63 nM. Next, `O=C(CCC(F)(F)F)N1CC=C(c2cccn3nc(Nc4ccc(C(=O)N5CCC6(CCNC6)C5)cc4)nc23)CC1` (centres unmarked) [Example 2-28, 1-[4-[2-[4-(2,7-diazaspiro[4.4]nonane-2-carbonyl)anilino]-[1,2,4]triazolo[1,5-a]pyridin-8-yl]-3,6-dihydro-2H-pyridin-1-yl]-4,4,4-trifluoro-butan-1-one]: 1.42 nM; `O=C(CCC(F)(F)F)N1CC=C(c2cccn3nc(Nc4ccc(C(=O)N5CCC6(CCNCC6)CC5)cc4)nc23)CC1` [Example 2-29, 1-[4-[2-[4-(3,9-diazaspiro[5.5]undecane-3-carbonyl)anilino]-[1,2,4]triazolo[1,5-a]pyridin-8-yl]-3,6-dihydro-2H-pyridin-1-yl]-4,4,4-trifluoro-butan-1-one]: 1.49 nM; `O=C(NCC1CNCCO1)c1ccc(Nc2nc3c(C4=CCN(C(=O)CCC(F)(F)F)CC4)cccn3n2)cc1` (centres unmarked) [Example 2-30, N-(morpholin-2-ylmethyl)-4-[[8-[1-(4,4,4-trifluorobutanoyl)-3,6-dihydro-2H-pyridin-4-yl]-[1,2,4]triazolo[1,5-a]pyridin-2-yl]amino]benzamide]: 1.43 nM. Next, `CNCCNC(=O)c1ccc(Nc2nc3c(C4=CCN(C(=O)CCC(F)(F)F)CC4)cccn3n2)cc1` [Example 2-31, N-[2-(methylamino)ethyl]-4-[[8-[1-(4,4,4-trifluorobutanoyl)-3,6-dihydro-2H-pyridin-4-yl]-[1,2,4]triazolo[1,5-a]pyridin-2-yl]amino]benzamide]: 1.51 nM.

In the case of `O=C(NCCN1CCNCC1)c1ccc(Nc2nc3c(C4=CCN(C(=O)CCC(F)(F)F)CC4)cccn3n2)cc1` [Example 2-32, N-(2-piperazin-1-ylethyl)-4-[[8-[1-(4,4,4-trifluorobutanoyl)-3,6-dihydro-2H-pyridin-4-yl]-[1,2,4]triazolo[1,5-a]pyridin-2-yl]amino]benzamide], the Ki worked out at 1.38 nM. Next, `O=C(CCC(F)(F)F)N1CC=C(c2cccn3nc(Nc4ccc(C(=O)N5CCNCC5CO)cc4)nc23)CC1` (centres unmarked) [Example 2-33, 4,4,4-trifluoro-1-[4-[2-[4-[2-(hydroxymethyl)piperazine-1-carbonyl]anilino]-[1,2,4]triazolo[1,5-a]pyridin-8-yl]-3,6-dihydro-2H-pyridin-1-yl]butan-1-one]: 0.63 nM. Turning to `O=C(CCC(F)(F)F)N1CC=C(c2cccn3nc(Nc4ccc(C(=O)N5CCCCC56CCCNC6)cc4)nc23)CC1` (centres unmarked) [Example 2-34, 1-[4-[2-[4-(1,8-diazaspiro[5.5]undecane-1-carbonyl)anilino]-[1,2,4]triazolo[1,5-a]pyridin-8-yl]-3,6-dihydro-2H-pyridin-1-yl]-4,4,4-trifluoro-butan-1-one], the Ki worked out at 1.93 nM. Consider `O=C(CCC(F)(F)F)N1CC=C(c2cccn3nc(Nc4ccc(C(=O)N5CC6(CCNC6)C5)cc4)nc23)CC1` [Example 2-35, 1-[4-[2-[4-(2,7-diazaspiro[3.4]octane-2-carbonyl)anilino]-[1,2,4]triazolo[1,5-a]pyridin-8-yl]-3,6-dihydro-2H-pyridin-1-yl]-4,4,4-trifluoro-butan-1-one], for which the inhibitory constant (Ki) is 0.82 nM. With `CN(C(=O)c1ccc(Nc2nc3c(C4=CCN(C(=O)CCC(F)(F)F)CC4)cccn3n2)cc1)C1CCCNC1` (centres unmarked) [Example 2-36, N-methyl-N-(3-piperidyl)-4-[[8-[1-(4,4,4-trifluorobutanoyl)-3,6-dihydro-2H-pyridin-4-yl]-[1,2,4]triazolo[1,5-a]pyridin-2-yl]amino]benzamide], the inhibitory constant (Ki) stood at 2.29 nM. On to `O=C(CCC(F)(F)F)N1CC=C(c2cccn3nc(Nc4ccc(C(=O)N5CC6CNCC(C5)O6)cc4)nc23)CC1` [Example 2-37, 4,4,4-trifluoro-1-[4-[2-[4-(9-oxa-3,7-diazabicyclo[3.3.1]nonane-3-carbonyl)anilino]-[1,2,4]triazolo[1,5-a]pyridin-8-yl]-3,6-dihydro-2H-pyridin-1-yl]butan-1-one], for which the Ki came to 1.16 nM. As to `CN1CC[C@H]2CN(C(=O)c3ccc(Nc4nc5c(C6=CCN(C(=O)CCC(F)(F)F)CC6)cccn5n4)cc3)C[C@H]21` [Example 2-38, 1-[4-[2-[4-[(3aS,6aS)-1-methyl-2,3,3a,4,6,6a-hexahydropyrrolo[3,4-b]pyrrole-5-carbonyl]anilino]-[1,2,4]triazolo[1,5-a]pyridin-8-yl]-3,6-dihydro-2H-pyridin-1-yl]-4,4,4-trifluoro-butan-1-one], the Ki was 1.21 nM.

Take `CCN1CCC(CN(C)C(=O)c2ccc(Nc3nc4c(C5=CCN(C(=O)CCC(F)(F)F)CC5)cccn4n3)cc2)C1` (centres unmarked) [Example 2-39, N-[(1-ethylpyrrolidin-3-yl)methyl]-N-methyl-4-[[8-[1-(4,4,4-trifluorobutanoyl)-3,6-dihydro-2H-pyridin-4-yl]-[1,2,4]triazolo[1,5-a]pyridin-2-yl]amino]benzamide]: the Ki worked out at 1.79 nM. With `CN1CCCC12CN(C(=O)c1ccc(Nc3nc4c(C5=CCN(C(=O)CCC(F)(F)F)CC5)cccn4n3)cc1)C2` [Example 2-40, 4,4,4-trifluoro-1-[4-[2-[4-(5-methyl-2,5-diazaspiro[3.4]octane-2-carbonyl)anilino]-[1,2,4]triazolo[1,5-a]pyridin-8-yl]-3,6-dihydro-2H-pyridin-1-yl]butan-1-one], the Ki was 0.51 nM. For `Cc1ccnc(CNC(=O)c2ccc(Nc3nc4c(C5=CCN(C(=O)CCC(F)(F)F)CC5)cccn4n3)cc2)c1` [Example 2-41, N-[(4-methyl-2-pyridyl)methyl]-4-[[8-[1-(4,4,4-trifluorobutanoyl)-3,6-dihydro-2H-pyridin-4-yl]-[1,2,4]triazolo[1,5-a]pyridin-2-yl]amino]benzamide], the Ki worked out at 0.58 nM. Next, `Cc1ncccc1CNC(=O)c1ccc(Nc2nc3c(C4=CCN(C(=O)CCC(F)(F)F)CC4)cccn3n2)cc1` [Example 2-42, N-[(2-methyl-3-pyridyl)methyl]-4-[[8-[1-(4,4,4-trifluorobutanoyl)-3,6-dihydro-2H-pyridin-4-yl]-[1,2,4]triazolo[1,5-a]pyridin-2-yl]amino]benzamide]: 0.56 nM. As to `CC(CC(=O)N1CC=C(c2cccn3nc(Nc4ccc(C(=O)N(C)C5CCN(C)CC5)cc4)nc23)CC1)C(F)(F)F` (centres unmarked) [Example 2-43, N-methyl-N-(1-methyl-4-piperidyl)-4-[[8-[1-(4,4,4-trifluoro-3-methyl-butanoyl)-3,6-dihydro-2H-pyridin-4-yl]-[1,2,4]triazolo[1,5-a]pyridin-2-yl]amino]benzamide], the inhibition constant (Ki) stood at 2.58 nM. For the compound `O=C(CCC(F)(F)F)N1CC=C(c2cccn3nc(Nc4ccc(C(=O)N5CCC(N6CCOCC6)C5)cc4)nc23)CC1` (centres unmarked) [Example 2-45, 4,4,4-trifluoro-1-[4-[2-[4-(3-morpholinopyrrolidine-1-carbonyl)anilino]-[1,2,4]triazolo[1,5-a]pyridin-8-yl]-3,6-dihydro-2H-pyridin-1-yl]butan-1-one], the inhibition constant Ki turned out to be 1.13 nM. For `O=C(CCC(F)(F)F)N1CC=C(c2cccn3nc(Nc4ccc(C(=O)N5CCC(N6CCCC6)CC5)cc4)nc23)CC1` [Example 2-46, 4,4,4-trifluoro-1-[4-[2-[4-(4-pyrrolidin-1-ylpiperidine-1-carbonyl)anilino]-[1,2,4]triazolo[1,5-a]pyridin-8-yl]-3,6-dihydro-2H-pyridin-1-yl]butan-1-one], the inhibition constant (Ki) is 1.4 nM.

For `CC1CCCCN1CCCNC(=O)c1ccc(Nc2nc3c(C4=CCN(C(=O)CCC(F)(F)F)CC4)cccn3n2)cc1` (centres unmarked) [Example 2-47, N-[3-(2-methyl-1-piperidyl)propyl]-4-[[8-[1-(4,4,4-trifluorobutanoyl)-3,6-dihydro-2H-pyridin-4-yl]-[1,2,4]triazolo[1,5-a]pyridin-2-yl]amino]benzamide], the inhibition constant (Ki) is 0.73 nM. Take `CN1CCCC1CCNC(=O)c1ccc(Nc2nc3c(C4=CCN(C(=O)CCC(F)(F)F)CC4)cccn3n2)cc1` (centres unmarked) [Example 2-48, N-[2-(1-methylpyrrolidin-2-yl)ethyl]-4-[[8-[1-(4,4,4-trifluorobutanoyl)-3,6-dihydro-2H-pyridin-4-yl]-[1,2,4]triazolo[1,5-a]pyridin-2-yl]amino]benzamide]: the Ki amounted to 0.71 nM.
